In a compilation of properties of binary mixtures (doi:10.1021/je900906j):
The densities may have been worked out from excess volumes.

Experiment: xn = mol fraction of the nth substance listed
Details: 101.3 kPa

CCCCCCCC[N+](C)(CCCCCCCC)CCCCCCCC.O=S(=O)([N-]S(=O)(=O)C(F)(F)F)C(F)(F)F + CCOC(C)=O
mass density (298.15 K, x2 = 0.4991): 1081.5 kg/m3
mass density (298.15 K, x2 = 0.6429): 1062.7 kg/m3
mass density (303.15 K, x2 = 0.4991): 1076.9 kg/m3
mass density (303.15 K, x2 = 0.6429): 1058.2 kg/m3
mass density (313.15 K, x2 = 0.0923): 1093.3 kg/m3
mass density (313.15 K, x2 = 0.4991): 1069.3 kg/m3
mass density (313.15 K, x2 = 0.6429): 1050.4 kg/m3

CCCCCCCC[N+](C)(CCCCCCCC)CCCCCCCC.O=S(=O)([N-]S(=O)(=O)C(F)(F)F)C(F)(F)F + COC(C)=O
mass density (298.15 K, x2 = 0.3341): 1098.9 kg/m3
mass density (298.15 K, x2 = 0.6005): 1081.4 kg/m3
mass density (298.15 K, x2 = 0.8001): 1048.5 kg/m3
mass density (298.15 K, x2 = 0.9): 1010.6 kg/m3
mass density (303.15 K, x2 = 0.2291): 1100.2 kg/m3
mass density (303.15 K, x2 = 0.3341): 1096.5 kg/m3
mass density (303.15 K, x2 = 0.8001): 1046 kg/m3
mass density (303.15 K, x2 = 0.9): 1006.9 kg/m3
mass density (313.15 K, x2 = 0.2291): 1093.2 kg/m3
mass density (313.15 K, x2 = 0.3341): 1090.5 kg/m3
mass density (313.15 K, x2 = 0.5): 1080.5 kg/m3
mass density (313.15 K, x2 = 0.8001): 1037 kg/m3
mass density (313.15 K, x2 = 0.9): 998.3 kg/m3
